Test results as given in patent US20240343803A1 (SHANDONG SIMCERE BIOPHARMACEUTICAL, published 2024).
Like-named read-outs stand apart in the source and are kept apart here. Blank lines part the entries; values can stand above or below the binder they belong to.

What was measured:
[1] = target: T1, human PVRIG-mFc protein (Acro, PVG-H5253) (human, UniProt Q6DKI7 41-171, limits assumed); assay: competition FACS; blocked: PVRIG-mFc binding to CHO-K1 CD112 cells
T1 construct: bought reagent; also called PVRIG-ECD-mFc
T1 sequence (looked up): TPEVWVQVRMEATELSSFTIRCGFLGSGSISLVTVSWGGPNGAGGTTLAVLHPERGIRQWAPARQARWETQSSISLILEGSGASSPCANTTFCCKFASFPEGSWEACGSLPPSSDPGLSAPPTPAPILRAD

[2] = target: T2, human PVRIG on FlpinCHO-PVRIG cells (human, UniProt Q6DKI7 41-326); assay: FACS, FlpinCHO-hPVRIG cells
T2 construct: whole, on cells; also called FlpinCHO-hPVRIG; FlpinCHO-human PVRIG
T2 sequence (looked up): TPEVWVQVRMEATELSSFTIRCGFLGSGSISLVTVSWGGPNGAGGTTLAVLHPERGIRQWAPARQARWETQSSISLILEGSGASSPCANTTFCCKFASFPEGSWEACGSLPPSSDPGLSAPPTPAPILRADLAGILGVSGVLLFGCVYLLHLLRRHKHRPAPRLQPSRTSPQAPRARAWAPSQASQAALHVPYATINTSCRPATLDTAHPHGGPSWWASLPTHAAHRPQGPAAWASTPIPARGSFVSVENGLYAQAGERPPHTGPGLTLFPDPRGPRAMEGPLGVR

[3] = target: T3, cynomolgus monkey PVRIG on FlpinCHO-cyno PVRIG cells (cynomolgus monkey, UniProt A0A2K5WVV8 41-322); assay: FACS, FlpinCHO cynomolgus monkey PVRIG cells
T3 construct: whole, on cells; also called FlpinCHO-cynomolgus monkey PVRIG
T3 sequence: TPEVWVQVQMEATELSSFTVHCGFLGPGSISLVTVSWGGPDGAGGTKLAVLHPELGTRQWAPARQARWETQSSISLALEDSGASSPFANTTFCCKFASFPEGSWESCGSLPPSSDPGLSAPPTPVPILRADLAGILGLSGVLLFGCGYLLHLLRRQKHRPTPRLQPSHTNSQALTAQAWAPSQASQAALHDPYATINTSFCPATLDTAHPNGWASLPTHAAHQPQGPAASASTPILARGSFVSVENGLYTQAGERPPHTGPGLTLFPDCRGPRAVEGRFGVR

[4] = target: T4, cynomolgus monkey PVRIG (Novoprotein, Cat NO. C09B) (cynomolgus monkey, UniProt A0A2K5WVV8 41-171); assay: ELISA, coated cynomolgus PVRIG
T4 construct: Bought protein; construct not described; also called cynomolgus monkey PVRIG protein
T4 sequence: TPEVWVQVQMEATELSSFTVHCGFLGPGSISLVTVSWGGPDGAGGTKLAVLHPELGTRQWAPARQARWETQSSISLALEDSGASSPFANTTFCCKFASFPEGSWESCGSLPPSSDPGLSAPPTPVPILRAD

[5] = target: T5, human PVRIG-mFc protein (Acro, PVG-H5253) (human, UniProt Q6DKI7 41-171, limits assumed); assay: HTRF competition, PVRIG-mFc with Bio-CD112-His as competitor
T5 construct: extracellular domain; Bought protein; also called PVRIG-ECD-mFc; not shown: mouse Fc tag of the bought protein
T5 sequence (looked up): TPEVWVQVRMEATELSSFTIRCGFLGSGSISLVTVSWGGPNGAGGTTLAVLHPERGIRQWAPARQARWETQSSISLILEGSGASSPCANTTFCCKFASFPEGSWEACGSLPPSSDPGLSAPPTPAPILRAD

[6] = target: T6, human PVRIG (AcroBiosystems, Cat NO. PVG-H52H4) (human, UniProt Q6DKI7 41-171, limits assumed); assay: ELISA, coated human PVRIG
T6 construct: Bought protein with His tag; also called human PVRIG-his; human PVRIG protein
T6 sequence (looked up): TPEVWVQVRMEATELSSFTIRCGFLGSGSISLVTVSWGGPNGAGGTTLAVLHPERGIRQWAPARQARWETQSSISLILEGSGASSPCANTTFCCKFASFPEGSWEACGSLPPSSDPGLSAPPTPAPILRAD

[7] = target: T7, cynomolgus monkey TIGIT ECD-mFc (cynomolgus monkey); assay: ELISA, cynomolgus TIGIT ECD-mFc captured by anti-mouse IgG
T7 construct: also called cynomolgus monkey TIGIT protein

[8] = target: T6, human PVRIG (AcroBiosystems, Cat NO. …); assay: ELISA, coated human PVRIG; remark: listed apart in the source
hPVRIG = target: T8, hPVRIG (human, UniProt Q6DKI7 41-171, limits assumed); assay: SPR (BIAcore), antibody captured on Protein A, antigen as analyte
T8 sequence (looked up): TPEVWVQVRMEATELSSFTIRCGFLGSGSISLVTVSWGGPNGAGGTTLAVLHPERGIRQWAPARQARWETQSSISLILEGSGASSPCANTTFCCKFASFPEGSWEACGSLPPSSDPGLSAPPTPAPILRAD

cynoPVRIG = target: T9, cynoPVRIG (cynomolgus monkey, UniProt A0A2K5WVV8 41-171); assay: as above
T9 sequence: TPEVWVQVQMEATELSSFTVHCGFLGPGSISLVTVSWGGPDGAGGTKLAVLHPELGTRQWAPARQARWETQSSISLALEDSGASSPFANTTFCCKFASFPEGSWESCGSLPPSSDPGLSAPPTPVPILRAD

cynoTIGIT = cynoTIGIT (cynomolgus monkey, UniProt A0A7N9I9V4 89-209); assay: as above
Chain of cynoTIGIT (A0A7N9I9V4 entry or part of it): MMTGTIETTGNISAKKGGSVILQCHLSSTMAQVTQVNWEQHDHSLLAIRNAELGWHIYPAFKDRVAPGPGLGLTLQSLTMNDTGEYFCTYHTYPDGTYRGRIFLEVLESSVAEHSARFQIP

[9] = target: T4, cynomolgus monkey PVRIG (Novoprotein, …); assay: ELISA, coated cynomolgus PVRIG; remark: listed apart in the source

B1: LC-BsAb-009 (bispecific antibody, human IgG1, kappa)
heavy: EVQLVESGGGLVQPGGSLRLSCAASGRTFDRHTMSWFRQAPGKEREFVATASRIPGDTYYVDSVKGRFTISRDNAKNSLYLQMNSLRAEDTAVYYCAATSAYCSEVDCYEKGSWYDNWGQGTMVTVSSGGGGSGGGGSGGGGSGGGGSEVQLQESGPGLVKPSETLSLTCAVSGYSITSDSWNWIRQPPGKKLEYIGYISYSGNTYYNPSLKSRVTISRDTSKNQFSLKLSSVTAADTAVYYCARLDFSNYGGAVDYWGQGTTVTVSS[skipping human IgG1 constant region]
light: DIVMTQSPDSLAVSLGERATINCKASQNVRTAVAWYQQKPGQSPKLMIYSASYRYTGVPDRFSGSGSGTDFTLTISSLQAEDVAVYYCQQYYTTPWTFGGGTKVEIKRTVAAPSVFIFPPSDEQLKSGTASVVCLLNNFYPREAKVQWKVDNALQSGNSQESVTEQDSKDSTYSLSSTLTLSKADYEKHKVYACEVTHQGLSSPVTKSFNRGEC
notes: HC: PVRIG-A105-H1 + (G4S)4 linker + TIGIT-002-H4L3 VH + constant; LC: TIGIT-002-H4L3 VL + kappa; also called anti-PVRIGxTIGIT humanized bispecific antibody
- IC50 (read off the curve) [1]: ~0.9 nM
- EC50 (read off the curve) [2]: ~0.6 nM
- EC50 (read off the curve) [3]: ~0.5 nM

B3: LC-BsAb-002 (bispecific antibody, human IgG1, kappa)
heavy: EVQLVESGGGLVQPGGSLRLSCAASGFTFSYYDMSWVRQAPGKGLEWVSTINSDGGRTSYVDSVKGRFTISRDNSKNTLYLQMNSLRAEDTAVYYCVEGDPHNFGLESLSLRDFGSWGQGTMVTVSSGGGGSGGGGSGGGGSGGGGSEVQLQESGPGLVKPSETLSLTCAVSGYSITSDSWNWIRQPPGKKLEYIGYISYSGNTYYNPSLKSRVTISRDTSKNQFSLKLSSVTAADTAVYYCARLDFSNYGGAVDYWGQGTTVTVSS[skipping human IgG1 constant region]
light: DIVMTQSPDSLAVSLGERATINCKASQNVRTAVAWYQQKPGQSPKLMIYSASYRYTGVPDRFSGSGSGTDFTLTISSLQAEDVAVYYCQQYYTTPWTFGGGTKVEIKRTVAAPSVFIFPPSDEQLKSGTASVVCLLNNFYPREAKVQWKVDNALQSGNSQESVTEQDSKDSTYSLSSTLTLSKADYEKHKVYACEVTHQGLSSPVTKSFNRGEC
notes: HC: PVRIG-A50-H1b + (G4S)4 linker + TIGIT-002-H4L3 VH + human IgG1 constant; LC: TIGIT-002-H4L3 VL + kappa; also called anti-PVRIGxTIGIT humanized bispecific antibody
- IC50 (read off the curve) [1]: ~0.9 nM

Results, then the binder that gave them:

- EC50 [4]: 0.0256 nM
- IC50 [5]: 0.196 nM
- EC50 [6]: 0.0607 nM
- EC50 [7]: 0.0418 nM
B2: LC-BsAb-009 (bispecific antibody, human IgG1, kappa)
heavy: EVQLVESGGGLVQPGGSLRLSCAASGRTFDRHTMSWFRQAPGKEREFVATASRIPGDTYYVDSVKGRFTISRDNAKNSLYLQMNSLRAEDTAVYYCAATSAYCSEVDCYEKGSWYDNWGQGTMVTVSSGGGGSGGGGSGGGGSGGGGSEVQLQESGPGLVKPSETLSLTCAVSGYSITSDSWNWIRQPPGKKLEYIGYISYSGNTYYNPSLKSRVTISRDTSKNQFSLKLSSVTAADTAVYYCARLDFSNYGGAVDYWGQGTTVTVSS[skipping human IgG1 constant region]
light: DIVMTQSPDSLAVSLGERATINCKASQNVRTAVAWYQQKPGQSPKLMIYSASYRYTGVPDRFSGSGSGTDFTLTISSLQAEDVAVYYCQQYYTTPWTFGGGTKVEIKRTVAAPSVFIFPPSDEQLKSGTASVVCLLNNFYPREAKVQWKVDNALQSGNSQESVTEQDSKDSTYSLSSTLTLSKADYEKHKVYACEVTHQGLSSPVTKSFNRGEC
notes: Heavy chain fusion: PVRIG-A105-H1 - (G4S)4 linker - TIGIT-002-H4L3 VH - human IgG1 constant region; also called anti-PVRIGxTIGIT humanized bispecific antibody

- % relative activity PVRIG-A50-H1b/tested antibody [5]: 186%
- IC50 [5]: 0.11 nM
- % relative activity PVRIG-A50-H1b/tested antibody [8]: 66.1%
- EC50 [8]: 0.574 nM
- Kd (hPVRIG): 0.19 nM
- koff (hPVRIG): 5.87e-05 s⁻¹
- kon (hPVRIG): 309000 M⁻¹ s⁻¹
- Kd (cynoPVRIG): 3.66 nM
- koff (cynoPVRIG): 0.000131 s⁻¹
- kon (cynoPVRIG): 35700 M⁻¹ s⁻¹
- Kd (cynoTIGIT): 13.1 nM
- koff (cynoTIGIT): 0.00643 s⁻¹
- kon (cynoTIGIT): 492000 M⁻¹ s⁻¹
- EC50 [7]: 0.0554 nM
- % relative activity PVRIG-A50-H1b/tested antibody [9]: 86.4%
- EC50 [9]: 0.044 nM
B4: LC-BsAb-002 (bispecific antibody, human IgG1, kappa)
heavy: EVQLVESGGGLVQPGGSLRLSCAASGFTFSYYDMSWVRQAPGKGLEWVSTINSDGGRTSYVDSVKGRFTISRDNSKNTLYLQMNSLRAEDTAVYYCVEGDPHNFGLESLSLRDFGSWGQGTMVTVSSGGGGSGGGGSGGGGSGGGGSEVQLQESGPGLVKPSETLSLTCAVSGYSITSDSWNWIRQPPGKKLEYIGYISYSGNTYYNPSLKSRVTISRDTSKNQFSLKLSSVTAADTAVYYCARLDFSNYGGAVDYWGQGTTVTVSS[skipping human IgG1 constant region]
light: DIVMTQSPDSLAVSLGERATINCKASQNVRTAVAWYQQKPGQSPKLMIYSASYRYTGVPDRFSGSGSGTDFTLTISSLQAEDVAVYYCQQYYTTPWTFGGGTKVEIKRTVAAPSVFIFPPSDEQLKSGTASVVCLLNNFYPREAKVQWKVDNALQSGNSQESVTEQDSKDSTYSLSSTLTLSKADYEKHKVYACEVTHQGLSSPVTKSFNRGEC
notes: Heavy chain fusion: PVRIG-A50-H1b - (G4S)4 linker - TIGIT-002-H4L3 VH - human IgG1 constant region; also called anti-PVRIGxTIGIT humanized bispecific antibody
